Measured values from PubChem BioAssay AID1645887 (National Center for Advancing Translational Sciences (NCATS), 2021).
Values joined by “and” are separate entries in the source; they are usually repeats but may differ in a detail not shown here. Identical values can stand only once. Out of some 16,000 compounds screened, about 40 (0.2%) were called active. Inconclusive results (about 1%) are left out. Calls follow the shape of the dose curve; as a rule, active = well fitted activation curve with a large enough effect; inconclusive = small, poorly fitted or top-dose-only effect, or another doubt; inactive = no such curve, though single readings can be large or run the other way. The list shows a part of the results.

These molecules were tested against Rap guanine nucleotide exchange factor 4 (Homo sapiens) (UniProt Q8WZA2) (assay: Validation qHTS for agonist of cAMP-regulated guanine nucleotide exchange factor 4 (EPAC2)). Conditions: EPAC2 Rap1B BODIPY-GDP exchange, fluorescence; activation: hits give high values.
Chain of UniProt Q8WZA2 (Q8WZA2 whole entry, looked up): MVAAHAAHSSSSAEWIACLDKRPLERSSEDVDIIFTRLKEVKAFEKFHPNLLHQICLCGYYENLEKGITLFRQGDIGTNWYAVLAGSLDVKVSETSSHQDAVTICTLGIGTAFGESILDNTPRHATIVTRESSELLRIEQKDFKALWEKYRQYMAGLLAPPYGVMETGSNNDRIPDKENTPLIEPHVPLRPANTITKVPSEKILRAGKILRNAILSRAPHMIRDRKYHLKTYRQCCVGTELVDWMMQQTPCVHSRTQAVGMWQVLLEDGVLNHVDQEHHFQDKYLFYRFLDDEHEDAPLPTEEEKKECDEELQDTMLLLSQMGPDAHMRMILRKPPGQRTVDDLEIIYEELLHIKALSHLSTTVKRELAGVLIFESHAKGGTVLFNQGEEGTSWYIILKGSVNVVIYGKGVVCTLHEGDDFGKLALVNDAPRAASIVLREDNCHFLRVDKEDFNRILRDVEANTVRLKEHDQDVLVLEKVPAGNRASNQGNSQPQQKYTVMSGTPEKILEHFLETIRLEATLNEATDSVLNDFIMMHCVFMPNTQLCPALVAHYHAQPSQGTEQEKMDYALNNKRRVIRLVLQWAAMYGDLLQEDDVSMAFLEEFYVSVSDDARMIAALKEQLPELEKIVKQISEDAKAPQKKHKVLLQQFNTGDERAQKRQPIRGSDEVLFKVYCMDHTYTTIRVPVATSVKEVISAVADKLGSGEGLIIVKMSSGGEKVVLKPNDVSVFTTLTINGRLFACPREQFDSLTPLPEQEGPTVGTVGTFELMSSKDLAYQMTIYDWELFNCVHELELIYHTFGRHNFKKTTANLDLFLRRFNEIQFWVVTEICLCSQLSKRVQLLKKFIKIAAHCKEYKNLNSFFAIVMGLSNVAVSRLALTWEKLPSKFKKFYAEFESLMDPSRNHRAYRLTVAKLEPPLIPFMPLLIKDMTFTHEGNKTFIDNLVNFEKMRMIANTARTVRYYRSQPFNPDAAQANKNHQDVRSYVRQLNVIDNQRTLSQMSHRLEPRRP
Text: Principle Investigator: Xiaodong Cheng Ph.D.
The University of Texas Medical Branch, […], TX
In multi-cellular eukaryotic organisms, the effects of cAMP are transduced by two ubiquitously-expressed intracellular cAMP receptors, the classic protein kinase A/cAMP-dependent protein kinase (PKA/cAPK) and the more recently discovered exchange protein directly activated by cAMP/cAMP-regulated guanine nucleotide exchange factor (EPAC/cAMP-GEF). Both PKA and EPAC are ubiquitously expressed in all tissues, and an increase in intracellular cAMP levels will lead to the activation of both PKA and EPAC. Therefore, careful dissections of the individual role and relative contribution of EPAC and PKA within the overall cAMP signaling in various model systems are critical for further elucidating the mechanism of cAMP signaling. To date no EPAC-specific antagonists and agonist, as well as isoform-specific agonists have been reported, and developing EPAC-specific pharmacological probes to determine the physiological functions that EPAC play in the overall cAMP-mediated signaling remains a major challenge within the research field. Furthermore, identified regulators of EPAC may lead to new mechanism-based therapeutic strategies specifically targeting the EPAC / cAMP-signaling components as EPAC has been implicated to play important roles in major human pathological conditions such as diabetes, heart disease, and cancer.
This qHTS will be used to screen the Molecular Libraries Small Molecule Repository (MLSMR) as a concentration-titration series using the NCGC unique quantitative screening (qHTS) platform to find activators for EPAC1. In addition, this assay will also be used as a counterscreen for the EPAC2 qHTS. This fluorescent based assay is developed and validated for EPAC1 that measures exchange using EPAC effector Rap1 complex with BODIPY-GDP, a GDP analog with a tethered fluorophores. Activators are identified by monitoring the change in fluorescence signal as the exchanged free BODIPY-GDP has a reduced fluorescence compared to Rap1-bound BODIPY-GDP. Increase in signal (activation) is the desired outcome for the EPAC1 agonist while no activity in this assay is desired for the EPAC2 agonist counterscreen.
[1] de Rooij, J., Zwartkruis, F. J., Verheijen, M. H., Cool, R. H., Nijman, S. M., Wittinghofer, A., and Bos, J.L. (1998) Nature 396, 474-477.
Briefly, three uL of reagents (100 nM EPAC2, 250 nM RAP1B-BODIPY-GDP, 50 uM GDP) were dispensed into a 1536-well Greiner black solid-bottom medium binding assay plate. Controls and test compounds (23 nL) were transferred to the plate via a Kalypsys pin tool equipped with a 1536-pin array. The plates were centrifuged at 1,000 rpm for 15 seconds followed by 5 minute incubation at room temperature. The assay plates were read at 5 minute intervals for 30 minutes in the ViewLux plate reader using 480nm excitation and 540nm emission filters. The results were normalized to the agonist positive control of 6.5 mM cAMP.
% is scaled to controls: 0 for no effect and ±100 for the full control effect; potency is read from the fitted curve at half-maximal effect.
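For activation in this document: exchange makes BODIPY-GDP fluorescence drop when released from Rap1B; series mostly up to about 150 µM.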

SMILES	activation	Potency
CCOC(=O)c1ccccc1C(=O)OCC	inactive: 5.39%	–
NC(N)=NOCC[C@H](N)C(=O)O	inactive: -12% and inactive: -71.7%	–
O=C(Nc1ccccc1)N1CCC2(CC1)CCN(C(=O)Oc1ccccc1)CC2	inactive: -16.9%	–
N[C@@H](Cn1oc(=O)[nH]c1=O)C(=O)O	inactive: -11.8% and inactive: 3.16% and inactive: 10.2%	–
CC(Cc1ccc2c(c1)OCO2)NO (stereo not given)	inactive: -17.6%	–
Clc1cnc(Oc2ccc(Oc3ncc(Cl)cc3Cl)cc2)c(Cl)c1	inactive: -2.13% and inactive: 4.09%	–
[O]=[Cd]	inactive: -0.16%	–
CCCN(CCC)[C@@H]1CCc2ccc(O)cc2C1	inactive: -20.6% and inactive: -9.27%	–
COc1c2c(c(CC=C(C)C)c3oc(=O)c(-c4ccc(O)cc4)c(O)c13)OC(C)(C)C=C2	inactive: -10.5%	–
OC[C@H]1O[C@@H](n2cnc3cc(Cl)c(Cl)cc32)[C@H](O)[C@H]1O	inactive: -2.99%	–
CNCCc1ccc(O)c(O)c1	inactive: 4.21% and inactive: -18.2%	–
O=C1C=CC(=O)c2c(O)cccc21	inactive: -19.1%	–
CN(C(=O)Cc1ccc(Cl)c(Cl)c1)[C@H](CN1CCCC1)c1ccccc1	inactive: -17.2% and inactive: 6.79%	–
CNNC	inactive: -8.09%	–
NCC(=O)c1ccc(Cl)c(Cl)c1	inactive: -24.1%	–
CCN1C[C@]2(COC(=O)c3ccccc3N3C(=O)C[C@H](C)C3=O)CC[C@H](OC)[C@@]34[C@@H]5C[C@H]6[C@H](OC)[C@H]5[C@](O)(C[C@@H]6OC)[C@@](O)([C@@H](OC)[C@@H]23)[C@@H]14	inactive: -1.94%	–
CC1OC(=O)C(C(C)C)NC(=O)C(C(C)C)OC(=O)C(C(C)C)NC(=O)C(C)OC(=O)C(C(C)C)NC(=O)C(C(C)C)OC(=O)C(C(C)C)NC(=O)C(C)OC(=O)C(C(C)C)NC(=O)C(C(C)C)OC(=O)C(C(C)C)NC1=O (stereo not given)	inactive: -16.2% and inactive: -7.35%	–
COC1C(O)C(C)O[C@@H](OC2CC[C@@]3(C)C4CC[C@]5(C)C(C6=CC(=O)OC6)CC[C@@]5(O)C4CC[C@@H]3C2)C1O (stereo not given in full)	inactive: -12.2%	–
ClCC1CO1 (stereo not given)	inactive: -0.588%	–
CCC(C)C(=O)c1c(O)c(C)c2oc3c(C)c(O)c(C(=O)C(C)CC)c(O)c3c2c1O (stereo not given)	inactive: -24.1%	–
C/C=C1/C[N@@+]2(C)CC[C@]34C(=C(C=O)[C@H]1C[C@H]32)Nc1ccccc14	inactive: 0.511%	–
CCCC(C)(COC(N)=O)COC(N)=O	inactive: -15.5%	–
CC1=NCCc2c1[nH]c1cc(O)ccc21	–	active: 100 µM
COC(=O)N1CCC2(CCN(CC(C)C)CC2)CC1	inactive: -7.07%	–
CN(N=O)c1ccc(O)c(O)c1	inactive: -14%	–
CCN1C[C@]2(C)CC[C@H](O)[C@@]34C5C[C@@H]6[C@@H](OC)C[C@@](O)(C5[C@H]6O)[C@@H](CC23)[C@@H]14 (stereo not given in full)	inactive: -3.45% and inactive: 0.708%	–
CCOP(=S)(OCC)SCSc1ccc(Cl)cc1	inactive: -18.2%	–

SMILES	activation	Potency
CC[C@H](O)C(C[C@H](C)N(C)C)(c1ccccc1)c1ccccc1	inactive: -7.14%	–
CCOC(=O)[C@]12Cc3cc(Cl)ccc3[C@H]1N(Cc1ccccc1)C(=O)c1ccccc12	inactive: 2.28%	–
c1cc2c(cc1[C@H]1OC[C@@H]3[C@H]1CO[C@H]3c1ccc3c(c1)OCO3)OCO2	inactive: 6.93%	–
CSc1nc(NC(C)C)nc(NC(C)C)n1	inactive: -1.99%	–
CCN1C[C@]2(COC)C(O)C[C@H](OC)[C@@]34C5C[C@]6(O)C(OC)C(O)[C@](OC(C)=O)(C5C6OC(=O)c5ccccc5)C(C(OC)C23)C14 (stereo not given in full)	inactive: -6.95%	–
CCN[C@@H](C)Cc1ccccc1	inactive: 1.25%	–
CCCN1CCC[C@@H]2Cc3nc(N)ncc3C[C@H]21	inactive: 1.26% and inactive: -32.9%	–
COc1cc(CC(C)N)cc2c1OCO2 (stereo not given)	inactive: 0.0606%	–
OCC1CCCN2CCCCC12 (stereo not given)	inactive: -6.01%	–
CC1(C)[C@@H](O)C[C@H]2[C@](C)(O)[C@@H]3CC[C@H]4[C@@H](O)[C@@]3(C[C@@H](O)[C@@]21O)C[C@@]4(C)O	inactive: 3.34% and inactive: 0.783%	–
C=CC[C@]1(O)CC[C@H]2[C@@H]3CCC4=CC(=O)CCC4=C3C=C[C@@]21C	inactive: -5.32%	–
C[C@@H]1O[C@H](C[N+](C)(C)C)C[C@@H]1O	inactive: 6.7%	–
CS(=O)(=O)c1ccc(C(=O)C2C(=O)CCCC2=O)c([N+](=O)[O-])c1	inactive: -28.9%	–
C=CCN1CC[C@]23c4c5ccc(O)c4OC2C(=O)CC[C@]3(O)C1C5 (stereo not given in full)	inactive: 18%	–
COc1cc2c(cc1OC)-c1c(O)c(OC)cc3c1[C@H](C2)N(C)CC3	inactive: 5.67%	–
CCOc1ccc2c3c1O[C@H]1[C@@H](O)C=C[C@H]4[C@@H](C2)N(C)CC[C@@]341	inactive: 9.85%	–
Cn1cnc(CCN)c1	inactive: -22.7%	–
COc1cc2c(cc1OC)-c1c(OC)c(OC)c(C=O)c3c1[C@H](C2)N(C)CC3	inactive: 5.07%	–
Cc1ccccc1-n1c(CF)nc2ccc(N)cc2c1=O	inactive: -7.51%	–
CCCCCC1C(=O)O[C@H](C)[C@@H](NC(=O)c2cccc(NC=O)c2O)C(=O)OC(C)C1OC(=O)CC(C)C (stereo not given in full)	inactive: -40.8%	–
COc1ccc(NC(=O)N2CCCC3(CCN(C(=O)Oc4ccccc4)CC3)C2)cc1	inactive: -4.9%	–
CC(Cc1ccc(O)cc1)NCC(O)c1cc(O)cc(O)c1 (stereo not given)	inactive: -3.33% and inactive: -4.16% and inactive: -2.87%	–
C/C(=C\c1csc(C)n1)[C@@H]1C[C@@H]2O[C@]2(C)CCC[C@H](C)[C@H](O)[C@@H](C)C(=O)C(C)(C)[C@@H](O)CC(=O)O1	inactive: -14.3%	–
C=C[C@H]1CN2CC[C@H]1C[C@@H]2[C@@H](O)c1ccnc2ccccc12	inactive: -10.5%	–
CCN(CC)C(=O)/C(Cl)=C(\C)OP(=O)(OC)OC	inactive: -18.6%	–
C=CCN=C=S	inactive: -31.4%	–
Nc1ncnc2c1ncn2[C@@H]1O[C@H](COP(=O)(O)CP(=O)(O)O)[C@@H](O)[C@H]1O	inactive: 6.92%	–

SMILES	activation	Potency
CC(C)NC(=O)N1CCCC2(CCN(C(=O)Oc3ccccc3)CC2)C1	inactive: -6.63%	–
COC(=O)/C(C)=C\CC12OC(C)(C)C3CC(C=C4C(=O)c5c(OC)c6c(c(CC=C(C)C)c5OC431)OC(C)(CCC=C(C)C)C=C6)C2=O (stereo not given)	inactive: -31.4%	–
CC(C)N(CCC(C(N)=O)(c1ccccc1)c1ccccn1)C(C)C (stereo not given)	inactive: 7.55% [middle of 4 runs]	–
O=[N+]([O-])/C=C/c1ccc2c(c1)OCO2	inactive: -17.7%	–
COP(N)(=O)SC (stereo not given)	inactive: 1.01%	–
CCC12CCCN3CCC4(c5ccc(OC)c(O)c5N(C(C)=O)C4CC1)C32 (stereo not given)	inactive: -1.82%	–
CO[C@H]1[C@@H](O)C[C@H](O[C@H]2[C@@H](O)C[C@H](O[C@H]3[C@@H](O)C[C@H](O[C@H]4CC[C@@]5(C)[C@H](CC[C@@H]6[C@@H]5C[C@@H](O)[C@]5(C)[C@@H](C7=CC(=O)OC7)CC[C@]65O)C4)O[C@@H]3C)O[C@@H]2C)O[C@@H]1C	inactive: -8.19%	–
C[C@H](N)[C@H](O)c1ccc(O)c(O)c1	inactive: -12.9%	–
COC(=O)c1ccccc1C(=O)OC	inactive: -7.65%	–
Clc1ccc(C2CC3CCC2N3)cn1 (stereo not given)	inactive: -3.14% and inactive: -8.51%	–
N#Cc1ccc(CN2CC[C@@]3(CCCNC3)C2)cc1	inactive: 0.132%	–
C[C@@H]1[C@@H]2Cc3ccc(O)cc3[C@@]1(C)CCN2CC1CC1	inactive: -6.65%	–
C[C@]12CCC(=O)C=C1CC[C@@H]1[C@H]3CC[C@](C)(O)[C@@]3(C)CC[C@@H]12	inactive: -15.1%	–
CCN(CC)CCO[C@H]1CC[C@@]2(C)C(=CC[C@@H]3[C@H]2CC[C@]2(C)C(=O)CC[C@H]32)C1	inactive: -9.88%	–
NCC(=O)c1ccc(Br)cc1	inactive: -0.142%	–
CCC(=O)OC1CCC2C3CCC4=CC(=O)CC[C@@]4(C)C3CC[C@]12C (stereo not given in full)	inactive: 5.54%	–
C=CCN1C[C@H](C)N([C@H](c2ccc(C(=O)N(CC)CC)cc2)c2cccc(O)c2)C[C@H]1C	inactive: 0.992%	–
C=CCN1C[C@H](C)N([C@H](c2ccc(C(=O)N(CC)CC)cc2)c2cccc(OC)c2)C[C@H]1C	inactive: 24.1% and inactive: -8.96%	–
O=C(O)c1ccc(NC(=O)N2C[C@H]3C[C@@H](C2)c2cccc(=O)n2C3)cc1	inactive: -7.83%	–
c1cc2c(cc1C1OC[C@@H]3C(c4ccc5c(c4)OCO5)OCC13)OCO2 (stereo not given in full)	inactive: -17%	–
CCCCCCC[n+]1ccc(-c2cc[n+](CCCCCCC)cc2)cc1	inactive: -38.9%	–
OC1CCCCC1N1CCC(c2ccccc2)CC1 (stereo not given)	inactive: -9.61% and inactive: -20.8%	–
CC(Cc1ccc(OCC(=O)O)cc1)NCC(O)c1cccc(Cl)c1 (stereo not given)	inactive: 7.27% and inactive: -20.6%	–
CC(C)=CCOc1c2occc2cc2ccc(=O)oc12	inactive: -15.8% and inactive: -24.8%	–
NC(=O)c1ccc(N)nc1	inactive: 3.02%	–
N[C@@H](Cc1ccc(N(CCCl)CCCl)cc1)C(=O)O	inactive: -8.35%	–
